Measured values taken from PubChem BioAssay AID1458 (National Center for Advancing Translational Sciences (NCATS), 2008).
Out of some 210,000 compounds screened, about 5,900 (2.8%) were called active. The shares of active, inactive and inconclusive entries below differ from those in the screen. The call rests on the fitted dose curve; in most records, active means well fitted activation curve with a large enough effect; inconclusive means small, poorly fitted or top-dose-only effect; inactive means no such curve, though single readings can be large or run the other way. A potency beside an inconclusive call is a rough fit, not a confirmed value.

assay: qHTS Assay for Enhancers of SMN2 Splice Variant Expression; conditions: HEK293 SMN2-luciferase splicing reporter, luminescence, 30-36 h; activity change, positive = activation: at 46.1 µM (top of the series); further: nearly all actives have a fitted effect of over 55% in size; on activity change, positive = activation: % of control where 0% means no effect
Summary of the method: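 HEK293 cells carry an SMN2 […]–luciferase reporter in which exon 7 inclusion puts luciferase in frame. Cells were plated 10-12 h before compound addition, then incubated 30-36 h at 37C. ONE-Glo luminescence was read; sodium butyrate at 4.5 mM final served as control.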
Potency means the concentration at half of the fitted maximal effect; tags describe the fitted curve by direction and shape.

Structure (SMILES) | Potency | activity change, positive = activation
Oc1ccccc1OCc1nc2ccccc2s1 | active: 31.6 µM | 
CN(CC(=O)Nc1ccccc1-c1ccccc1)Cc1ccccc1Cl | inactive | 
CO[C@H]1C[C@@H]2CC[C@@H](C)[C@@](O)(O2)C(=O)C(=O)N2CCCC[C@H]2C(=O)O[C@H](C(C)C[C@H]2CC[C@@H](O)[C@H](OC)C2)CC(=O)[C@H](C)/C=C(\C)[C@@H](O)[C@@H](OC)C(=O)[C@H](C)C[C@H](C)/C=C/C=C/C=C/1C (some centres undefined) | inactive | 
COc1cccc(C2=NNC(=NCc3ccccc3)SC2)c1 | inconclusive: 35.5 µM [activator, single point] | 
NC(=O)NC(=O)COC(=O)c1cccc(NS(=O)(=O)/C=C/c2ccccc2)c1 | inconclusive: 20 µM [activator, partial curve, poor fit] | 
CCc1ccc(NC(=O)Cn2c(=O)n(CCCC(=O)NCc3ccco3)c(=O)c3ccccc32)cc1 | inconclusive: 0.0447 µM [activator, full curve, poor fit] | 
CCC1=C2CC[C@H]3C(=O)N(C)C(=O)[C@H]3[C@H]2[C@@]2(C)C(=NCC(=O)OC)OC(=O)N2C1=O | inactive | 
Cc1cc2ccccn2c1C(=O)Nc1ccccc1 | inconclusive: 10 µM [activator, partial curve] | 
COc1cc(/C=N\Nc2cc(=O)n(C)c(=O)n2C)ccc1O | inactive | 
CCOC(=O)CSc1nnc(NC(=O)c2cccc(S(=O)(=O)N3CCCC3)c2)s1 | inconclusive: 0.355 µM [activator, full curve, poor fit] | 
Cc1nn2cc(-c3ccc(-c4ccccc4)cc3)nc2s1 | inconclusive: 3.16 µM [activator, single point] | 
c1ccc2c3c(cc(N4CCOCC4)c2c1)OC1(N2CCOCC2)CCCCC1O3 (centres undefined) | active: 22.4 µM | 
CC(C)(C)C(=O)Nc1nc(-c2ccc3c(c2)OCO3)cs1 | inconclusive: 11.2 µM [activator, partial curve, poor fit] | 
CCOc1cccc(C(=O)Nc2nnc(-c3ccco3)s2)c1 | active: 2.82 µM | 
N#C/C(=C/c1ccc(N2CCOCC2)o1)c1ccc(Cl)cc1 | inconclusive: 15.8 µM [activator, single point] | 
Cc1csc(NC(=O)C2CCCN2C(=O)Oc2ccccc2)n1 (centres undefined) | inconclusive: 0.355 µM [activator, partial curve, poor fit] | 
CNCC(O)c1cccc(O)c1 (centres undefined) | inactive | 
CC1(C)CC(=O)C2=C(C1)Nc1ccccc1NC2c1ccccn1 (centres undefined) | inactive | 
O=C1OC(/C(=C\Nc2ccc(F)cc2F)[N+](=O)[O-])c2ccccc21 (centres undefined) |  | inconclusive: 35.7% [activator]
COc1ccc(OC)c(C2NC(=O)NC(C)=C2C(=O)Nc2ccc(F)cc2)c1 (centres undefined) | inactive | 
O=C(Nc1ccccc1O)c1csc2c1CCCC2 | active: 15.8 µM | 
O=C(CCCN1C(=O)/C(=C\c2cccs2)SC1=S)NNC(=O)c1ccncc1 | inactive | 
Cc1ccc(C(=O)n2c(=S)nc3ccccn32)cc1 | active: 2 µM | 
CCOc1ccc(-n2c(=S)sc3c(=O)[nH]c(SCC(=O)C(C)(C)C)nc32)cc1 | inactive | 
CN(C)S(=O)(=O)c1ccc(C(=O)Nc2ccc(OCC(=O)N3CCOCC3)cc2)cc1 | inactive | 

Structure (SMILES) | Potency | activity change, positive = activation
O=C(COC(=O)COc1ccc(Cl)cc1)NCc1cccs1 | inactive | 
O=C(C1CCN(Cc2ccc(OCc3ccccc3)cc2)CC1)N1CCCC1 | inconclusive: 0.251 µM [activator, partial curve] | 
COc1cc(NC(=S)N2CCN(CCO)CC2)c(OC)cc1Cl | inactive | 
c1ccc(-c2nccc(-c3ccc4c(c3)OCO4)n2)cc1 | inconclusive: 35.5 µM [activator, single point] | 
COc1ccc(C(=O)/C=C/Nc2ccccn2)cc1 | active: 1.41 µM | 
C/C(=N\Nc1cccc(Cl)c1)c1ccncc1 | inconclusive: 11.2 µM [activator, partial curve, poor fit] | 
NS(=O)(=O)c1ccc(N2C(=O)C3C4CC(C(Br)C4Br)C3C2=O)cc1 (centres undefined) | inconclusive: 0.891 µM [activator, full curve, poor fit] | 
CCCC(=O)Nc1ccc(NC(=O)c2ccco2)c(OC)c1 | inconclusive: 25.1 µM [activator, single point] | 
COc1ccc(C2CC(c3c(O)cc(C)oc3=O)=NCCS2)c(OC)c1 (centres undefined) | inconclusive: 7.94 µM [activator, partial curve] | 
Fc1ccc(F)c(C2=NNC(=Nc3ccccc3F)SC2)c1 | inactive | 
CCCc1cc(C(=O)Nc2nnc(C)s2)cs1 | inconclusive: 10 µM [activator, single point] | 
O=C(OC1CCCCC1=O)c1cc(=O)c2ccccc2o1 (centres undefined) | inconclusive: 2.24 µM [activator, partial curve, poor fit] | 
COCCNC(=O)c1csc2c1CCCC2 | inactive | 
ClC1(Cl)CC1CSc1nc2ccccc2[nH]1 (centres undefined) | inconclusive: 20 µM [activator, single point] | 
Fc1ccc(N/N=C/C=C/c2ccccc2)c(F)c1 | inconclusive: 15.8 µM [activator, single point] | 
Cc1ccc(NC(=O)/C=C/c2cccs2)c([N+](=O)[O-])c1 | inconclusive: 20 µM [activator, single point] | 
CCOC(=O)C1(C)C=C(Nc2ccc(C(=O)O)cc2)C(=O)N1c1ccc(C(=O)O)cc1 (centres undefined) | inactive | 
COc1ccc(Nc2oc(-c3ccccc3)nc2C#N)cc1 | inconclusive: 0.708 µM [activator, full curve, poor fit] | 
CCOC(=O)C1CCN(C(=O)COc2ccc(S(=O)(=O)NC(C)(C)C)cc2)CC1 | inconclusive: 6.31 µM [activator, single point] | 
Cc1cccc(OCCC(=O)Nc2c(C)n(C)n(-c3ccccc3)c2=O)c1 | inconclusive: 0.0032 µM [activator, full curve, poor fit] | 
CCCCC(=O)Nc1ccc(NC(=S)NC(=O)CC(C)C)cc1OC | inconclusive: 0.199 µM [activator, full curve, poor fit] | 
Brc1ccc(-c2cnc(-c3cccs3)o2)cc1 | inconclusive: 11.2 µM [activator, partial curve, poor fit] | 
O=C(CSc1nc2nn(-c3ccccc3)c(=O)c-2c2n1CCCCC2)NCCCc1ccccc1 | inactive | 
CCc1ccc2nc(N3C(=O)C(O)=C(C(=O)c4ccco4)C3c3cccs3)sc2c1 (centres undefined) | inconclusive: 35.5 µM [activator, single point] | 
CCOc1ncccc1C(=O)OCC(=O)Nc1cccc(C(C)=O)c1 | inactive | 

Structure (SMILES) | Potency | activity change, positive = activation
COc1cc2oc(=O)c(Br)c(C)c2c(OC)c1OC | inconclusive: 5.62 µM [activator, single point] | 
COc1ccccc1-c1cc2nc(C)c(CCC(=O)NCc3cccc(Cl)c3)c(C)n2n1 | inactive | 
CCc1ccc2nc(SCC(=O)NCC3CCCO3)c(C#N)cc2c1 (centres undefined) | inconclusive: 11.2 µM [activator, partial curve] | 
O=c1[nH]c(=O)n(CCO)c2nnn(Cc3ccccc3)c12 | inconclusive: 35.5 µM [activator, single point] | 
CCCOc1cccc(C(=O)N(Cc2ccc(OC)c(OC)c2)C2CCS(=O)(=O)C2)c1 (centres undefined) | inconclusive: 2.24 µM [activator, partial curve, poor fit] | 
Cc1c(C(=O)Nc2ccccc2)sc2nc3n(c(=O)c12)CCCCC3 | inconclusive: 14.1 µM [activator, single point] | 
O=C(NCCC(c1ccccc1)c1ccco1)c1cccs1 (centres undefined) | inconclusive: 11.2 µM [activator, partial curve] | 
COc1ccc(C(=O)NCc2cc(C)nc3ccccc23)cc1 | inactive | 
CC(C)CCn1c(SCCc2ccccc2)nc2c1c(=O)[nH]c(=O)n2C | inactive | 
CCN(CC)S(=O)(=O)c1ccc2c(c1)c(=O)c(C(=O)N1CCN(c3cccc(C)c3)C(C)C1)cn2C (centres undefined) | inactive | 
O=[N+]([O-])c1ccccc1/C=N/NC1=NCCCCC1 | inconclusive: 5.62 µM [activator, partial curve, poor fit] | 
O=C(/C=C/NCC(=O)c1ccccc1)c1ccc(Br)cc1 | inactive | 
Cc1noc(C)c1C(=O)N1CCC2(CC1)CN(c1ccccn1)C2 | inactive | 
c1ccc(-c2csc(Nc3cccnc3)n2)nc1 | inconclusive: 17.8 µM [activator, partial curve, poor fit] | 
O=C1c2ccccc2NC(c2ccco2)N1/N=C/c1ccco1 (centres undefined) | inconclusive: 14.1 µM [activator, single point] | 
Cc1cc(/C=C(\C#N)C(=O)NCc2ccco2)c(C)[nH]1 | inconclusive: 0.562 µM [activator, full curve, poor fit] | 
COc1ccc(NC(=O)c2cnc[nH]2)cc1 | inconclusive: 20 µM [activator, partial curve, poor fit] | 
Cc1nc(SCC(=O)Nc2ccccc2F)[nH]c(=O)c1Cc1ccccc1 | inactive | 
CC(=O)Oc1cc2oc(=O)cc(C)c2cc1OC(C)=O | inconclusive: 25.1 µM [activator, single point] | 
Cc1ccc(C)c(NC(=S)NCc2cccn2C)c1 | inconclusive: 11.2 µM [activator, partial curve] | 
COc1ccc(Cl)cc1NC(=O)CNCC(c1ccccc1)N(C)C (centres undefined) | inconclusive: 35.5 µM [activator, single point] | 
COc1ccc(-n2cnc3c(cnn3CCC#N)c2=N)cc1 | inactive | 
Cc1ccccc1Cn1ccc(-c2ccc3c(c2)OCO3)n1 | inactive | 
Nc1nc(-c2ccccc2)nc2sc3c(c12)CCCC3 | active: 3.16 µM | 
